Data: the RNAGym collection of RNA variant scans (doi:10.1093/nar/gkz1192)
The source gives no read counts; variants with many changes may rest on few reads.

B1: CPEB3 Ribozyme (parent)
chain: UAACAGGGGGCCACAGCAGAAGCGUUCACGUCGCAGCCCCUGUCAGAUUCUGGUGAAUCUGCGAAUUCUGCUGUAUAUCUC

Variants of: B1
Assay: self-cleavage, relative activity (ratio to wild type); higher = more cleavage; in vitro, sequencing
Procedure, shortened: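 Relative activity was defined as the cleaved/total read fraction for a variant divided by the same fraction for the unmutated ribozyme. CPEB3 self-cleaving ribozyme libraries were made by rounds of error-prone PCR, barcoded, and transcribed in vitro with T7 RNA polymerase for 5 hours at 37°C, and cleavage ran through transcription plus a 15 min DNase I step before EDTA. Illumina sequencing of template-switched reverse transcripts gave the reads, and DNA sequencing mapped the barcodes. Averages come from three batches, using variants with at least 5 reads.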

Variant	self-cleavage
A18U C37U U41C A57G G63A	0.22
A18U C37U U51C G52A A64C U72A A77U	0.06
A18U C39A U48C A64G U67C C81U	0.24
A18U C39A U72A	0.18
A18U C39U U80C	0.37
A18U C62U A64U A77C	0.25
A18U C62U U69A	0.13
A18U C68G U74C	0.12
A18U G19A G36U A47G U69G	0.09
A18U G19A U60G	0.05
A18U G19U A21G	0.35
A18U G19U A35U G36A U43C	0.08
A18U G22C U72C	0.27
A18U G22U C27U A47G U69A C79U	0.14
A18U G22U U49C A57G U69A	0.08
A18U G24A U31A U49C	0.05
A18U G24A U80C	0.07
A18U G24U G33A U72A C79A	0.05
A18U G30A A56G	0.19
A18U G33A A35U	0.15
A18U G33A A47C U67C	0.08
A18U G33A A47G A64G C68G	0.13
A18U G33A G36C U54C	0.13
A18U G33U U49A	0.12

Variant	self-cleavage
A18U G33U U49C A65G	0.07
A18U G36U U41C U43C	0.17
A18U U25A A28U C59A U78C	0.07
A18U U25A A64U	0.39
A18U U25A U26C C40U	0.14
A18U U25A U49A G53A	0.06
A18U U25C A35G	0.17
A18U U25C A35G U48C	0.08
A18U U25C A57G U69C U72A	0.31
A18U U25C A65C C68A	0.17
A18U U25C A65G	0.24
A18U U25C A77G	0.07
A18U U25C C27U A64G	0.16
A18U U25C U26A G30A A64G C81A	0.28
A18U U25C U41C U72A	0.14
A18U U25C U54C	0.39
A18U U26A A35U	0.21
A18U U26A U69C A75G	0.18
A18U U26C A28U C32U A57G U76C U80C	0.03
A18U U26C A64G	0.13
A18U U26C C44G A75G U76A	0.16
A18U U26C G36U U72C	0.05
A18U U26C U31C U58A A64G	0.15
A18U U26C U51C	0.05

Variant	self-cleavage
A18U U26C U60A A75U U76A	0.25
A18U U26C U69A A77U U78A	0.59
A18U U26G A57G	0.08
A18U U31A U66C	0.19
A18U U31C G63A U67C U72A	0.09
A18U U31C U41C U60C	0.3
A18U U31C U41C U69C	0.13
A18U U31C U60C	0.15
A18U U41C A56G A64G U72A	0.22
A18U U41C A56G U76C	0.43
A18U U41C G61A U69C	0.18
A18U U41C U49A A75G U80C	0.09
A18U U41C U49C	0.17
A18U U41C U58C G61A C79U	0.18
A18U U41G U49C A65G U66C	0.03
A18U U41G U66C U67C A77G	0.2
A18U U43C G73C U74A	0.13
A18U U43C U48G U69A	0.26
A18U U43C U76C	0.45
A18U U43G U76C	0.28
A18U U48A U66A	0.15
A18U U49C U54C U66C	0.07
A18U U54C U58C A64G	0.15
A18U U54C U67C	0.19

Variant	self-cleavage
A18U U58C U60G	0.12
A18U U60C U69A	0.65
A18U U60C U80G	0.28
A18U U66C U69A	0.41
A18U U66C U72A	0.23
A18U U66C U72C	0.32
A18U U69C U80A	0.64
A18U U78C C81A	0.4
G19A A20G C23A A64C	0.13
G19A A20G C39G U60A U69A U80C	0.11
G19A A20U U26C A28G U76C	0.07
G19A A28G U74C A75G	0.07
G19A A35C U48C U80A	0.19
G19A A45G U48C U54A	0.11
G19A A45G U60A	0.42
G19A A56G U72C	0.28
G19A A56U U60C	0.14
G19A C38G U48G U51C U54C A65G	0.17
G19A G33A U72C	0.07
G19A G36A U58C	0.12
G19A U25A C34U A57G	0.05
G19A U25A U41A A56G G73A A75G	0.17
G19A U26A U31A U51A U66C	0.07
G19A U26C A45G C62A	0.32

Variant	self-cleavage
G19A U26C A45G U72C	0.2
G19A U26C A56G	0.09
G19A U26C G46A	0.23
G19A U31A C34U	0.14
G19A U41A U76A	0.18
G19A U41C G42U	0.24
G19A U41C U58C U66C A75U	0.08
G19A U43C U69C	0.12
G19A U60A C62A	0.07
G19C A20C A77G	0.23
G19C A20G A35G U51A U60A U69C	0.17
G19C A21U A65G	0.08
G19C A28U U58C	0.17
G19C A35G U78C	0.58
G19C C23A A28G U78C	0.05
G19C C37A U60C U69C	0.05
G19C U25C A35G U49C	0.22
G19C U25C U51C A57G U72A	0.05
G19C U26C G33A U60C U78C	0.06
G19C U26C U72A	0.04
G19C U31C U48C U69A	0.15
G19C U31G A35U U43A A56G	0.05
G19C U69C A77U U78C	0.06
G19U A20G U41A G52A	0.07

Variant	self-cleavage
G19U A21G G24A A35G A45G A64U	0.12
G19U A21G G52A	0.11
G19U A21G G52A U74A	0.1
G19U A28U A47G U48A U80C	0.29
G19U A35G A45C	0.22
G19U A35G A45C G61A	0.17
G19U C27U A28G A35U	0.06
G19U C29U A35C U43C A47G U69A	0.08
G19U C37U U58C G73A	0.21
G19U C40U A47G U48C G52U	0.12
G19U G24A A47U U72A U78C	0.07
G19U G24C U26C U51C A64G	0.08
G19U G24U U48C U51A A65G A75G	0.09
G19U U26C A28U	0.42
G19U U26C A35G A47G A75G	0.07
G19U U26C A47G U48C	0.22
G19U U26C U48A	0.19
G19U U26C U58C	0.45
G19U U26G U41C	0.12
G19U U31A A35U	0.13
G19U U41A G73A	0.06
G19U U41C A64G U67C	0.12
G19U U43C U49C A65G U78C	0.08
A20C A21G C44U A47U	0.19

Variant	self-cleavage
A20C A21G U31C	0.42
A20C A28G U51C A57G U67C	0.14
A20C A35U C62U	0.32
A20C A45U U67G U78C	0.41
A20C C32A A35U U69A	0.07
A20C C38U A56G	0.2
A20C G24U C40U A65G U72G	0.1
A20C U25C G61A	0.17
A20C U26A G33C U51C A56G U58A A64G	0.04
A20C U26A U48C U72A	0.09
A20C U26C C37U G70A	0.05
A20C U26C U31C U72A	0.06
A20C U26C U54C C79U	0.04
A20C U26C U72C	0.49
A20C U31A A35U U43C U48A U66C A75U	0.05
A20C U31A U41C U51A G52U U69A A75U	0.17
A20C U41A A65G U69A	0.13
A20C U49C U54C	0.26
A20C U51C U78C	0.22
A20C U67C A75G U78A	0.09
A20G A21C U25C U67C	0.17
A20G A21C U26A G36U U41C	0.18
A20G A21G A35G A64G U72A	0.22
